{"source": "PubChem BioAssay AID504332", "about": "(National Center for Advancing Translational Sciences (NCATS), 2011)", "note": "The whole screen tested about 350,000 compounds, of which about 31,000 (8.9%) were called active. This list was built around the results that the source calls inconclusive (neither active nor inactive); the mix of calls is not that of the screen. The call rests on the fitted dose curve; in most records, active means well fitted inhibition curve with a large enough effect; inconclusive means small, poorly fitted or top-dose-only effect; inactive means no such curve, though single readings can be large or run the other way. A potency beside an inconclusive call is a rough fit, not a confirmed value. On the % scale 0 is the no-effect control and ±100 the full control effect; potency means the concentration at half of the fitted maximal effect; tags describe the fitted curve by direction and shape."}
{"biological_target": "Histone-lysine N-methyltransferase EHMT2 (Homo sapiens) (UniProt Q96KQ7)", "sequence (Q96KQ7 whole entry, looked up)": "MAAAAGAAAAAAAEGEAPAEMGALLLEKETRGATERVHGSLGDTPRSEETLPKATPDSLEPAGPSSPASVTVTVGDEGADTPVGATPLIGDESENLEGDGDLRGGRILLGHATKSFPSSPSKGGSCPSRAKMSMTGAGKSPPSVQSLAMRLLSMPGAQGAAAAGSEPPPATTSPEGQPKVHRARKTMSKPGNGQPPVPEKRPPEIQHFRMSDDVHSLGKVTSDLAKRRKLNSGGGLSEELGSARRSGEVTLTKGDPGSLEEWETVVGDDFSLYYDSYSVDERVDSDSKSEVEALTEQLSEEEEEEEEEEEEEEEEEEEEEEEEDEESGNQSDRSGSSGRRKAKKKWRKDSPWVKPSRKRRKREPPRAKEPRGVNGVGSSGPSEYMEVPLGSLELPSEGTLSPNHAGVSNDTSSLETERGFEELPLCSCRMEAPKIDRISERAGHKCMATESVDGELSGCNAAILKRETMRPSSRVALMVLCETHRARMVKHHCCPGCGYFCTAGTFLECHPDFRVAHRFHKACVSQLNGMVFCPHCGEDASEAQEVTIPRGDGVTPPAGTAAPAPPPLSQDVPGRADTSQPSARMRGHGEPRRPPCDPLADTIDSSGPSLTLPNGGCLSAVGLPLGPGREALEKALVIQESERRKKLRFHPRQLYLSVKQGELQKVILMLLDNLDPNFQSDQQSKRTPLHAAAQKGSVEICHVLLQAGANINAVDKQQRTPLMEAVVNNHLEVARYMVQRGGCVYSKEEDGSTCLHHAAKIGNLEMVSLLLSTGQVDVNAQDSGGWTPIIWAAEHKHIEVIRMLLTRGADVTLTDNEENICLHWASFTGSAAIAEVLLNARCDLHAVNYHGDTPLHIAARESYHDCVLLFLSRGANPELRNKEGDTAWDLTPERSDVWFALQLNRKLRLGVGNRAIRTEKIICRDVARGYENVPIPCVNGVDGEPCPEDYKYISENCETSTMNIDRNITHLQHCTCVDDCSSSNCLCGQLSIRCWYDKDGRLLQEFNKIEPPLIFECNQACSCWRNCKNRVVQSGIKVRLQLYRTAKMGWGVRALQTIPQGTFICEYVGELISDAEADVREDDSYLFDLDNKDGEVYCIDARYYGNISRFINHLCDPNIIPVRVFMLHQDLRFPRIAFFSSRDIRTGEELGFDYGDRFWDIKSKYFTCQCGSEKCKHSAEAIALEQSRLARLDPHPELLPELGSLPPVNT", "assay": "qHTS Assay for Inhibitors of Histone Lysine Methyltransferase G9a; further: nearly all actives have a fitted effect of over 75% in size", "conditions": "G9a H3K9 monomethylation, AlphaScreen, 2 h; activity, negative = inhibition: at 59 µM (top of the series) unless noted", "summary_of_the_method": "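Enzyme 20 nM + cpd, 15 min RT; add b-H3K9 pep 500 nM / SAM 20 uM; 2 h RT; anti-H3K9me1 Ab 0.5 ug/mL + SA donor / anti-rabbit acceptor beads 20 ug/mL each, 10 min; AlphaScreen read.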"}
{"smiles": "O=C(Nc1ccccc1C(F)(F)F)c1ccccn1", "Potency": "inconclusive: 3.55 µM [inhibitor, full curve, poor fit]"}
{"smiles": "Cc1c(C(=O)NCc2ccccc2Cl)sc2nc(-c3ccc(F)cc3)cn12", "Potency": "inconclusive: 39.8 µM [inhibitor, single point]"}
{"smiles": "CC(C)c1cc(-c2n[nH]c(=S)n2Cc2ccccc2)cs1", "activity, negative = inhibition": "inconclusive: -52.4% [inhibitor] [at 0.0925 µM]"}
{"smiles": "Cc1nn(C(=O)c2ccccc2)c(C)c1S(=O)(=O)N1CCOCC1", "Potency": "inconclusive: 28.2 µM [inhibitor, single point]"}
{"smiles": "CCN(CC)CCn1c(/N=C/c2cc(Br)ccc2O)nc2ccccc21", "Potency": "inconclusive: 7.94 µM [inhibitor, full curve]"}
{"smiles": "COc1ccc(CNC(=O)c2ccc(-c3nc(CSc4ccc(C)cc4)c(C)o3)cc2)cc1OC", "Potency": "inconclusive: 4.47 µM [inhibitor, partial curve, poor fit]"}
{"smiles": "Cn1cc(CN2CCC(N3CCNC(=O)CC3)CC2)c(-c2ccccc2F)n1", "Potency": "inconclusive: 0.355 µM [inhibitor, partial curve, poor fit]"}
{"smiles": "COc1cc2c(cc1OC)C1=C(C#N)CN(CC(=O)O)CN1CC2", "Potency": "active: 35.5 µM"}
{"smiles": "CCOC(=O)C1CCN(Cc2cn[nH]c2-c2ccc(C)cc2)CC1", "activity, negative = inhibition": "inactive: -26.1% [at 2.33 µM]"}
{"smiles": "S=c1[nH]nc(COc2ccc(Cl)cc2)n1C1CCCCC1", "Potency": "inconclusive: 3.55 µM [inhibitor, full curve, poor fit]"}
{"smiles": "COc1ccc(NCC(=O)Nc2ccccc2C#N)cc1Cl", "Potency": "inconclusive: 39.8 µM [inhibitor, single point]"}
{"smiles": "CC(C)(C)c1ccc(C(=O)NCC(=O)OCC(=O)N2CCCC2)cc1", "Potency": "inconclusive: 1.58 µM [inhibitor, partial curve]"}
{"smiles": "Cc1ccccc1Cn1nnc2c(=O)[nH]c(C3CCCN(C(=O)c4ccc(F)cc4)C3)nc21", "note": "(stereo not given)", "Potency": "inactive"}
{"smiles": "CC(C)(C)NC(=S)NNC(=O)c1cccc(Br)c1", "Potency": "inconclusive: 79.4 µM [inhibitor, single point]"}
{"smiles": "Cc1ccccc1OCCCn1c(-c2ccc(Cl)cc2)nc2ccccc2c1=O", "Potency": "inactive"}
{"smiles": "O=C(Nc1nnc(S(=O)(=O)N2CCCC2)s1)c1ccccc1Br", "Potency": "inconclusive: 2.82 µM [inhibitor, partial curve, poor fit]"}
{"smiles": "CC(=O)C1=C(O)C(=O)N(CCCN2CCOCC2)C1c1ccccc1[N+](=O)[O-]", "note": "(stereo not given)", "activity, negative = inhibition": "inconclusive: -89.7% [inhibitor]"}
{"smiles": "COc1ccc(CCNS(=O)(=O)CCNC(=O)c2ccccc2)cc1", "Potency": "inconclusive: 63.1 µM [inhibitor, partial curve, poor fit]"}
{"smiles": "COc1ccc(-c2nc(-n3c(C)c(C(C)=O)c(C(C)=O)c3C)sc2C)cc1", "Potency": "inconclusive: 44.7 µM [inhibitor, partial curve, poor fit]"}
{"smiles": "NC(=O)c1cccc2c1C(=O)N(C1CCCCC1)C2", "Potency": "inconclusive: 89.1 µM [inhibitor, single point]"}
{"smiles": "COc1cc(N2C(=O)CSC23C(=O)N(Cc2ccc(C)cc2)c2ccccc23)cc(OC)c1OC", "note": "(stereo not given)", "Potency": "inconclusive: 5.01 µM [inhibitor, partial curve, poor fit]"}
{"smiles": "Cc1cc([N+](=O)[O-])ccc1NC(=O)C(C)N1CCN(c2ccccn2)CC1", "note": "(stereo not given)", "Potency": "inactive"}
{"smiles": "O/N=C(\\Cc1cscn1)c1ccc(O)cc1O", "Potency": "inconclusive: 22.4 µM [inhibitor, full curve]"}
{"smiles": "Cc1ccc(C)c(COC(=O)c2cc([N+](=O)[O-])ccc2N2CCOCC2)c1", "Potency": "inconclusive: 70.8 µM [inhibitor, partial curve, poor fit]"}
{"smiles": "CC1CCN(CCCNC(=O)c2cn(C)c3ccc(S(=O)(=O)N(C)C4CCCCC4)cc3c2=O)CC1", "Potency": "inactive"}
{"smiles": "COc1ccc(N2CCN(S(=O)(=O)c3ccc4c(c3)CCCN4C(C)=O)CC2)cc1", "Potency": "inconclusive: 25.1 µM [inhibitor, single point]"}
{"smiles": "Nc1cc(=O)[nH]c(=S)n1-c1ccccc1", "Potency": "inconclusive: 28.2 µM [inhibitor, single point]"}
{"smiles": "Cc1ccc(-n2ccnc2SCC(=O)c2c(N)n(C3CC3)c(=O)[nH]c2=O)cc1C", "Potency": "inconclusive: 14.1 µM [inhibitor, single point]"}
{"smiles": "O=C(CSc1nc2nccnc2c(=O)n1Cc1cccs1)Nc1ccccc1F", "Potency": "inactive"}
{"smiles": "O=C1c2ccccc2OC2(C=Cc3ccccc3O2)N1Cc1ccccc1", "note": "(stereo not given)", "Potency": "inactive"}
{"smiles": "Cc1cc(C)n(C(=O)COc2ccccc2C)n1", "Potency": "inactive"}
{"smiles": "COc1cc(C(=O)COC(=O)c2cnc(C)cn2)ccc1OC(F)F", "Potency": "inactive"}
{"smiles": "Cc1ccc2nc(N3CCN(c4ccccc4F)CC3)c(C=O)c(=O)n2c1", "Potency": "inconclusive: 56.2 µM [inhibitor, partial curve, poor fit]"}
{"smiles": "Cc1cc(N2CCN(C)CC2)nc2ccc(NC(=S)N3CCC4(CC3)OCCO4)cc12", "Potency": "active: 44.7 µM"}
{"smiles": "O=C(NCc1ccc2c(c1)OCO2)c1nc(S(=O)(=O)Cc2ccccc2F)ncc1Cl", "Potency": "active: 17.8 µM"}
{"smiles": "CCCCOc1ccccc1NC(=O)CC1Nc2ccccc2NC1=O", "note": "(stereo not given)", "Potency": "inconclusive: 50.1 µM [inhibitor, partial curve, poor fit]"}
{"smiles": "COc1ccc(Br)c(C(=O)Nc2cc3c(cc2N2CCCCC2)n(C)c(=O)c(=O)n3C)c1", "Potency": "inactive"}
{"smiles": "O=C(OC1CCCCC1)c1ccc2c(c1)C1C=CCC1C(C(=O)O)N2", "note": "(stereo not given)", "Potency": "inconclusive: 8.91 µM [inhibitor, partial curve, poor fit]"}
{"smiles": "COc1ccc(/C=N/c2oc(-c3ccccc3)cc2C#N)cc1", "Potency": "inconclusive: 39.8 µM [inhibitor, partial curve, poor fit]"}
{"smiles": "CCCCC(=O)N1CC(=O)Nc2ccc(F)cc2C1c1ccccc1", "note": "(stereo not given)", "Potency": "inactive"}
{"smiles": "CCN1CCN(CCCNC(=O)c2ccc3c(c2)NC(=O)/C(=C\\c2cccc(C)c2)S3)CC1", "Potency": "active: 35.5 µM"}
{"smiles": "CN(C)CCCN(Cc1cc2cc3c(cc2[nH]c1=O)OCO3)C(=S)Nc1cccc(Cl)c1", "Potency": "active: 50.1 µM"}
{"smiles": "CCCCCCCCN=C1NC(=O)CS1", "Potency": "active: 22.4 µM"}
{"smiles": "OC(CN(c1ccccc1)c1ccccc1)Cn1cnc2ccccc21", "note": "(stereo not given)", "activity, negative = inhibition": "inconclusive: -67% [inhibitor]"}
{"smiles": "O=C(Nc1ccc(S(=O)(=O)Nc2ncccn2)cc1)C1=COCCO1", "Potency": "active: 31.6 µM"}
{"smiles": "Cc1noc(C)c1C(=O)N1CCC2(CCCN(c3ccccn3)C2)CC1", "activity, negative = inhibition": "inactive: -3.66% [at 12.7 µM]"}
{"smiles": "CC(=O)Nc1ccc(NC(=O)c2ccc(COc3ccc(Cl)cc3Cl)o2)cc1", "Potency": "inactive"}
{"smiles": "CC1=CC(C)(C)[N+](C)(C)c2ccccc21", "Potency": "inconclusive: 4.47 µM [inhibitor, full curve, poor fit]"}
{"smiles": "CCN(CC)CCCC1(CN)OCCc2ccccc21", "note": "(stereo not given)", "Potency": "active: 25.1 µM"}
{"smiles": "O=C(CN(c1ccccc1)S(=O)(=O)c1ccc(F)cc1)NCc1cccs1", "Potency": "inactive"}
{"smiles": "CC(=O)Oc1ccc(N(C(C)=O)S(=O)(=O)c2ccc3ccccc3c2)cc1Br", "Potency": "inactive"}
{"smiles": "Cc1nc(=O)c(-c2ccccc2)c(C)n1-c1ccc(C(=O)O)cc1", "Potency": "inconclusive: 79.4 µM [inhibitor, single point]"}
{"smiles": "Nc1nnc(SCC(=O)Nc2ccc3nc(SCC(=O)Nc4ccccc4)sc3c2)s1", "Potency": "inconclusive: 89.1 µM [inhibitor, partial curve, poor fit]"}
{"smiles": "CCn1ncc(C(=O)Nc2cccc(Cl)c2)c1C", "Potency": "inconclusive: 100 µM [inhibitor, single point]"}
{"smiles": "COc1ccc(NCc2nc3ccccc3n2CCOc2ccccc2)cc1", "Potency": "active: 31.6 µM"}
{"smiles": "CCCCN1C(C(=O)Nc2ncccn2)=C(O)c2ccccc2S1(=O)=O", "Potency": "active: 28.2 µM"}
{"smiles": "CC(Sc1c[nH]c2ccccc12)C(=O)O", "note": "(stereo not given)", "Potency": "inconclusive: 7.08 µM [inhibitor, full curve, poor fit]"}
{"smiles": "CC(=O)c1ccc(OC(=O)N(c2ccccc2)c2ccccc2)cc1", "Potency": "inactive"}
{"smiles": "O=C(NCc1ccco1)C1CCCN(S(=O)(=O)c2cccc3nonc23)C1", "note": "(stereo not given)", "Potency": "inconclusive: 25.1 µM [inhibitor, single point]"}
{"smiles": "COc1cc2c(cc1OC)C(c1ccc(N(C)C)cc1)CC(=O)N2", "note": "(stereo not given)", "Potency": "inconclusive: 5.62 µM [inhibitor, single point]"}
{"smiles": "Cc1c(C)c2c(OCC(=O)N[C@@H](C(=O)O)c3ccccc3)cc3c(c2oc1=O)CCC(C)(C)O3", "Potency": "inconclusive: 39.8 µM [inhibitor, partial curve, poor fit]"}
{"smiles": "Cc1nc([N+](=O)[O-])c(C(=O)OCc2ccccc2F)n1C", "Potency": "inconclusive: 89.1 µM [inhibitor, partial curve, poor fit]"}
{"smiles": "C[C@H]1CNC(=O)C(=O)N1C[C@H](Cc1ccc(O)cc1)NC(=O)CC12CC3CC(CC(C3)C1)C2", "Potency": "active: 70.8 µM"}
{"smiles": "Cc1ccc(OCCSc2nc3ccccc3n2CC(=O)O)c(C(C)C)c1", "Potency": "inactive"}
{"smiles": "O=C(O)C/C(=C\\c1ccc(N2CCOCC2)c([N+](=O)[O-])c1)c1nc2ccccc2s1", "Potency": "inconclusive: 39.8 µM [inhibitor, partial curve]"}
{"smiles": "Cc1occc1C(=O)Nc1ccc2c(c1)CCC2", "Potency": "inconclusive: 50.1 µM [inhibitor, partial curve]"}
{"smiles": "COc1ccc(Cl)cc1NC(=O)COc1cccc(-n2cnnn2)c1", "Potency": "inconclusive: 50.1 µM [inhibitor, partial curve, poor fit]"}
{"smiles": "COc1ccc(CC(=O)NC2CCN(Cc3nnnn3C(C)(C)C)CC2)cc1OC", "Potency": "inconclusive: 1.12 µM [inhibitor, full curve, poor fit]"}
{"smiles": "COc1cc(NC(=S)NCc2cccnc2)cc(OC)c1OC", "Potency": "inactive"}
{"smiles": "COC(=O)[C@@]1(Cc2ccc(OC)cc2)[C@H]2c3cc(C(=O)N(C)C)[nH]c3C[C@H]2CN1C(=O)c1ccccc1", "Potency": "active: 50.1 µM"}
